The other results are listed elsewhere or left out.
Each compound was assayed on S. aureus RN4220 (assay: growth inhibition call (relative growth <= 0.2)). Details: 50 µM.

Growth inhibition call, inactive:
OC[C@H]1O[C@H](O[C@]2(CCl)O[C@H](CCl)[C@@H](O)[C@@H]2O)[C@H](O)[C@@H](O)[C@H]1Cl, COC(=O)c1cnn2c(=O)c3c([nH]c12)CCC3, C[C@@H]1CN([C@H](C)CO)C(=O)c2cc(NC(=O)NC3CCCCC3)ccc2O[C@@H]1CN(C)Cc1ccc(C(F)(F)F)cc1, C[C@H](CO)N1C[C@H](C)[C@@H](CN(C)Cc2ccc(-c3ccccc3)cc2)Oc2ccc(NS(=O)(=O)c3ccc(Cl)cc3)cc2C1=O, NCc1nnnn1-c1ccc(F)cc1, Cc1noc(C)c1S(=O)(=O)Nc1ccc2c(c1)CC(=O)N([C@H](C)CO)C[C@@H](C)[C@H](CN(C)S(=O)(=O)c1cccs1)O2, C[C@@H]1CN([C@H](C)CO)C(=O)CCCn2cc(nn2)CO[C@@H]1CN(C)S(C)(=O)=O, C[C@@H]1CCCCO[C@H](CN(C)Cc2ccc(C(=O)O)cc2)[C@@H](C)CN([C@@H](C)CO)C(=O)c2cc(NC(=O)Nc3ccc4c(c3)OCO4)ccc2O1, C[C@@H]1CN([C@@H](C)CO)C(=O)c2cccc(NC(=O)C3CCCCC3)c2O[C@H]1CN(C)C(=O)Nc1ccc(C(F)(F)F)cc1, C[C@@H]1CN([C@H](C)CO)C(=O)CCCn2cc(nn2)CO[C@H]1CN(C)S(=O)(=O)c1ccc(C#N)cc1, C=CCNC(=O)[C@H]1[C@@H]2C(=O)O[C@@H](c3ccccc3)[C@@H](c3ccccc3)N2[C@@H](c2ccccc2OCCO)[C@]12C(=O)N(C(=O)OCCOC)c1ccc(C#Cc3ccc(OC)cc3)cc12

— the antibiotic and cytotoxicity screens of Wong et al. (2023)
